# Test results from the RNAGym collection of RNA variant scans (doi:10.7554/elife.90254).
# The source gives no read counts; variants with many changes may rest on few reads.
# B1: LINE1-mini (parent)
# chain: GGCAGAGCUCAACACAGCGUGGCAAAGUGGCUGUGGCUAGACUGCC
# Variants of: B1
# Test: self-cleavage, relative activity (ratio to wild type); higher = more cleavage; in vitro, sequencing; the parent is a self-cleaving ribozyme
row,Variant,self-cleavage
1,GGCAGAGCUAAAAACAGCGUGGCAAAGUGGCUGUGGCUGGCCUGCC,0.05
2,GGCAGAGCUAAACACAGCAUGGCAAAGUAGCUGUGGCCAGACUGCC,0.77
3,GGCAGAGCUAAACUCAGCGUGGUAAAGUGGCUGUGGCUAGACUGCC,0
4,GGCAGAGCUAAACACAGCGUGGGCAAGUGGCUGUGGCUAGACUGAC,0.02
5,GGCAGAGCUAAACACUGCGUGGCAUAGUGGCUGUGGCUAGACUGCG,0.02
6,GGCAGAGCUAAACACACCGUGUCAAAGUGGCUGUGGCUAGACUGCC,0.06
7,GGCAGAGCUAAACACAGCGUGGGACAGUGGCUGUGGCUAGACUGAC,0.02
8,GGCAGAGCUAAACACGGCGUGGCAAAGUGGCUGUGGCAAGAAUGGC,0
9,GGCAGAGCUAAACACCGCGUGGCAAAGUGGCUGUGGCUAGACUGCA,0.01
10,GGCAGAGCUAAACACAGCGUGGCAAAGUGGUUGUGGCUAGACUGCG,0.06
11,GGCAGAGCUAAAAACUUCGUGUCAAAGAGGAUGUGGCUAGACUGCC,0
12,GGCAGAGCUAAAGACAGCGUGGCCAAGUGGGCGUGGCUAGACUUCG,0
13,GGCAGAGCUAAACACAGCAUGGCAAAGUUGUUGUGGCUAGACUGCC,0.02
14,GGCAGAGCUAAACACAGCGUGGAAAAGUGACUGUGGCUAGAAUGCC,0.02
15,GGCAGAGCUAAACACCGCGUUGCAAAGUGGCAGUGGCUAGACAGCC,0.01
16,GGCAGAGCUAAACACAGCGUGGAAAAGUGGCUGUGGCUAGACUGCA,0.02
17,GGCAGAGCUAAACACAGCGUGGCACAGUGUCUGUGUCUAGAAUGCC,0.01
18,GGCAGAGCUAAAUACAACGUGGCAAAGUGGCUGUCGCUACAGUGCC,0.01
19,GGCAGAGCUAAACACGGCGUGGCAAAGUGGCUAUGGCUCGACUGCC,0.01

row,Variant,self-cleavage
1,GGCAGAGCUAAACACAGCGUGGCAAAGUGGGCGUGGCUAGACUACC,0.02
2,GGCAGAGCUAAACACCGCGUGGCCACGUGGCUGUGGCUAGACUGCC,0.01
3,GGCAGAGCUAAACACAACGUGGCAAAGUGGCUGUGGCUAGCCUGCC,0.04
4,GGCAGAGCUAAACACAACCUGGCAAUGUGGCUGUGGCUAGAGUUCC,0.02
5,GGCAGAGCUAAACACAGCGUGGCAAAGUGGCUGUGGCUGGGCCGCC,0.01
6,GGCAGAGCUAAACACACCGUGGCAAAGAGGCUGUGGCUAGACUGCC,0.06
7,GGCAGAGCUAAACACAACGUGGCAAAGUGGCUGUGGCCAGACUGCC,0.07
8,GGCAGAGCUAAACAAAGCAUGGCAAAGCGGCUGUGGCAAGACUGCC,0.03
9,GGCAGAGCUAAAAACAGCGUGGCUAAGUGGCUGUGGCUAGGCUGCC,0.01
10,GGCAGAGCUAAACACAACGUGGCAAGGUGGCUGUGGCUAGACUGCC,0.05
11,GGCAGAGCUAAACACAGCGUGGGAAAGUGGCUGUGCAUAGACUGCC,0.01
12,GGCAGAGCUAAAAACUGCGAAGCAUAGUGGCUGUGGCUAGACUGCC,0.03
13,GGCAGAGCUAAAAACAGCGUAGCAAAGUGGCUGUGGCUAGACUGCC,0
14,GGCAGAGCUAAACACAGCGUGGCAAGGGGGCUGUGGCUAGACUGCC,0.04
15,GGCAGAGCUAAACAUAGCGUGGCAAAGUGGCUGUGGGUAGACUGGC,0.01
16,GGCAGAGCUAAACACAGCGUGGAAAAGUGGCUGUGGCCAGACUGCC,0.03
17,GGCAGAGCUAAACACAGCGUGGCAAAGUGGGUGUGGCUAUACUGCC,0
18,GGCAGAGCUAAACACAGUGGGGCAAAGUGGCUGUGGCUAGACUGCC,0.24
19,GGCAGAGCUAAACACAGCGUGGCAAAGUGGCUGUGGGUAGACUGGC,0.01

row,Variant,self-cleavage
1,GGCAGAGCUAAACAAAGCGUGGCAAAGUGGUUGUGGCUAGGCUGCC,0.01
2,GGCAGAGCUAAACACUGCGGGUCAAAUUGGCUGUGGCCAGACUGCC,0.02
3,GGCAGAGCUAAACAAUGUGUGCCAAAGUCGCUGUGGCUAGACUGCC,0.03
4,GGCAGAGCUAAAUACAGCGUGGCAAAGUUGCUGUGGCUAGACUGCC,0.01
5,GGCAGAGCUAAACACAGUGUGGCAAAGUGGCUGUGGCUCGUGUGCC,0.05
6,GGCAGAGCUAAAAACAGCGUGGCAAAGUUGCUGUGGCUAGACUGCG,0.01
7,GGCAGAGCUAAAUACAGCGUGGAAAAGUUGGUGUGGCUAGACUGCC,0.02
8,GGCAGAGCUAAACACAACGUGGCACAGUGGCUGUGGCUAGACCGCC,0.02
9,GGCAGAGCUAAACACCGCGUGGCUAAGUGGGUGUGGCUAGACUGUC,0.02
10,GGCAGAGCUAAACACACCGUAGCAAAGUGGGUAUGGCUAGACUGGC,0.01
11,GGCAGAGCUAAACACCGUGCGGCAAAGUGGCUGUGGCUAGACUGCC,0.03
12,GGCAGAGCUAAACACAGCGUGGCGGAGUGGCUGUGGCGAGACUGCC,0.04
13,GGCAGAGCUAAAAACAGCGUGGCAAAGUGGCUGUCGCUAGACUGCC,0.03
14,GGCAGAGCUAAAAACAGCGUGGCAAAGUGGCUGUUGCUAGACUGCC,2.06
15,GGCAGAGCUAAACACAGCAUCGCAAAGUGGCUGUGACUAGACUGCC,0
16,GGCAGAGCUAAACACCGCGUGGCAAAGUGGCUGUGGCUAUACUGCC,0.05
17,GGCAGAGCUAAACACAGCGUGGCAAAGUGGCUGUGGCUAGCCUUCC,0.03
18,GGCAGAGCUAAACACAGCGUGGAAAAGUGGCAGCGGCUAGACUGCC,0.01
